# Results as given in article PMC4336329 (PLoS ONE, 2015).
# About 14,000 (4.5%) of roughly 310,000 compounds showed an effect of 50% or more. Effects have a minus sign here. The list shows a part of the results.
# Molecular target: human ether-à-go-go-related gene (hERG) potassium channel (human, UniProt Q12809)
# Assay: primary screen, population patch clamp on CHO cells stably expressing hERG
# 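Also: peak tail current of the secondary pulse compared with the same well before compound.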
# Chain of human ether-à-go-go-related gene (hERG) potassium channel (Q12809 whole entry, looked up): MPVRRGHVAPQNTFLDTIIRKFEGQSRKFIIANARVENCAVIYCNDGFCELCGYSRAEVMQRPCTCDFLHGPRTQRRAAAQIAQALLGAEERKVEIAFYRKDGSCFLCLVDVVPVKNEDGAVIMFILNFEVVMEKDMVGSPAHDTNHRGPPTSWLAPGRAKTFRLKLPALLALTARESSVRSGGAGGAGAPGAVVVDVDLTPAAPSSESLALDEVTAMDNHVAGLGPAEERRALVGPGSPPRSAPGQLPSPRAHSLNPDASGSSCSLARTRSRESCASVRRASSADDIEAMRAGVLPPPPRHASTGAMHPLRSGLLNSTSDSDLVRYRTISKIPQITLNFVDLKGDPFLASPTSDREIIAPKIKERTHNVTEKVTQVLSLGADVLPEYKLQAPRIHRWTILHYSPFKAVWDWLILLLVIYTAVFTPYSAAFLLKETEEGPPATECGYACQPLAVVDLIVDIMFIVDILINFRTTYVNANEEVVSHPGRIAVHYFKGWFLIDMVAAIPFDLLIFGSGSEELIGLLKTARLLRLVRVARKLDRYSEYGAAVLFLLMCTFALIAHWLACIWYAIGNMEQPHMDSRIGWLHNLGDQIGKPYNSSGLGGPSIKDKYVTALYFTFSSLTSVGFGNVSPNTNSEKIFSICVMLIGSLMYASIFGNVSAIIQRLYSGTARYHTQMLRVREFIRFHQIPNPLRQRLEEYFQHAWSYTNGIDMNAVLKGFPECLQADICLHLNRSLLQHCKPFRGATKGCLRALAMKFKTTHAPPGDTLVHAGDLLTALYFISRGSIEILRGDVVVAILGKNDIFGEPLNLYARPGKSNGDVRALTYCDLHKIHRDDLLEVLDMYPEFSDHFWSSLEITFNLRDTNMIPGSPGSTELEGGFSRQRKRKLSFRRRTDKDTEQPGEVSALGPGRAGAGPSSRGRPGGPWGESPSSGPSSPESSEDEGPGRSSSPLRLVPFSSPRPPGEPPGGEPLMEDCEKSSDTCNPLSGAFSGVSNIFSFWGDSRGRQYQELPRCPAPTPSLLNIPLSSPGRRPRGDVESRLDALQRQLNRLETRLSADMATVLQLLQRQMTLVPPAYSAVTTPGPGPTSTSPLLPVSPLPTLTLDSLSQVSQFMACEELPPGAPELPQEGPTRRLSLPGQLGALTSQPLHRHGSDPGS
row,SMILES,"hERG current change (%, negative = inhibition) at 10uM [%]"
1,O=[N+]([O-])c1ccc(-c2nnc(-c3ccccc3)c(N3CCOCC3)n2)cc1,-15.9
2,CN(C)S(=O)(=O)c1ccc(N2CCCC2)c(C(=O)NCC2COc3ccccc3O2)c1 (centres unmarked),-30.8
3,CCOC(=O)COc1ccc2c3c(c(=O)oc2c1C)CCC3,17.1
4,CCOC(=O)c1c(NC(=O)CSc2nncs2)sc(C)c1-c1ccccc1,-3.83
5,COc1ccc(-c2c3c(=O)n(C)c(=O)n(C)c3cn2N2CCOCC2)cc1,-52.3
6,CC(C)c1ccc(N2C(=O)CSC23C(=O)N2CCCc4cccc3c42)cc1 (centres unmarked),10.2
7,Cc1c(Cl)c([N+](=O)[O-])nn1CCCC(=O)NC1CCCCC1,-10.9
8,CC1CN(c2nn3c(=O)c4ccccc4nc3c3ccccc23)CC(C)O1 (centres unmarked),-25.7
9,CCCCN1C2CCCC1CC(NC(=O)C1CCCCC1)C2 (centres unmarked),-16.9
10,CC(C)(C)OC(=O)NCC12C=CC(O1)C1C(=O)N(Cc3ccccc3)C(=O)C12 (centres unmarked),3.06
11,COc1ccc(S(=O)(=O)N(CC(=O)NCc2ccco2)c2ccc(C)cc2)cc1OC,8.64
12,O=C(CSc1n[nH]c(-c2ccco2)n1)Nc1ccccc1,-20.4
13,CCN(CC)S(=O)(=O)c1ccc2c(c1)N(CC(=O)NCCN1CCOCC1)C(=O)CO2,15
14,Cc1ccc(N(C(=O)c2csnn2)C(C(=O)NC2CCCCC2)c2cccnc2)cc1 (centres unmarked),-8.51
15,Cc1ccc(CNC(=O)COC(=O)c2cc(C)oc2C)cc1,9.96
16,Cc1cccc(NC(=S)N2CCN(c3ccccc3F)CC2)c1C,10.2
17,CCC1CCCCN1C(=O)CSc1nc(N)cc(N)n1 (centres unmarked),49.9
18,O=C(c1ccc(Cn2c(=O)[nH]c3ccccc3c2=O)cc1)N1CCN(c2ccc(Cl)cc2)CC1,0.857
19,CCCOC(=O)c1[nH]c2c(c1C)C(=O)CC(c1cc(OC)c(OC)c(OC)c1)C2 (centres unmarked),1.17
20,COC(=O)C(CC(C)C)NC(=O)CNC(=O)c1ccccc1C (centres unmarked),3.34
21,Cl.Clc1ccccc1CNC1CN2CCC1CC2 (centres unmarked),-3.27
22,Cc1cccc(N/N=C/c2ccncc2)c1,-1.3

row,SMILES,"hERG current change (%, negative = inhibition) at 10uM [%]"
1,OCC[C@H]1C[C@H](O)[C@@H](O)[C@]2(CCCCO2)O1,-6.39
2,O=C1CCC([N+](=O)[O-])C(c2ccc(C(F)(F)F)cc2)N1 (centres unmarked),9.34
3,Cc1onc(-c2c(Cl)cccc2Cl)c1C(=O)NC1CCCCC1,0.0692
4,O=C(c1ccc(F)cc1)N1CCCC(c2nc(-c3cccs3)no2)C1 (centres unmarked),-18.5
5,C=CCn1cnc2c(sc3nc(C)cc(C)c32)c1=O,-6.75
6,O=C(NCC1CCCO1)C(C(=O)c1ccccc1)n1ccccc1=O (centres unmarked),2.74
7,CC12CCC(C(=O)N3CCN(C(c4ccccc4)c4ccccc4)CC3)(OC1=O)C2(C)C (centres unmarked),-0.0815
8,O=C(Nc1ccon1)c1csc2c1CCCC2,-17.9
9,CC(C)C(=O)Nc1cccc(NC(=O)c2cccnc2)c1,-2.96
10,CCCc1nnc(NC(=O)COC(=O)c2cc(C)nc3ccccc23)s1,-10.5
11,COC(=O)Nc1ccc(S(=O)(=O)N(C)CC(F)(F)C(F)F)cc1,-9.74
12,O=S(=O)(c1ccc(Cl)cc1Br)N1CCCCC1,-26.7
13,O=C(O)CCC(=O)NCCc1cccc(Cl)c1,8.22
14,COC(=O)c1ccc(C(=O)OC)c(NC(=O)c2cnc3n(c2=O)CCS3)c1,-2.57
15,CCOc1ncccc1C(=O)Nc1ccc(OC)c(S(=O)(=O)N2CCCCC2)c1,18.4
16,CC(=O)c1cccc(N2C(=NC(=O)CCc3ccccc3)SC3CS(=O)(=O)CC32)c1 (centres unmarked),-5.41
17,CN1CCN(CC/C=C2\c3ccccc3Sc3ccc(S(=O)(=O)N(C)C)cc32)CC1,-58
18,CCCCc1ccc(NC(=S)N2CCCC(CO)C2)cc1 (centres unmarked),-5.21
19,CC(C)(C)n1nc2c(c1NC(=O)c1ccccc1C(F)(F)F)CS(=O)(=O)C2,25.4
20,CCOc1ccccc1NC(=O)COc1coc(CN2CCc3ccccc32)cc1=O,4.83
21,CN(C(=O)CSCC(=O)O)C1CCCCC1,-1.9
22,O=C(NCCc1ccccn1)C1CCCN1S(=O)(=O)c1ccc(Cl)cc1 (centres unmarked),6.89
